# Data: PubChem BioAssay AID686979 (National Center for Advancing Translational Sciences (NCATS), 2013)
# Values joined by “and” are separate entries in the source; they are usually repeats but may differ in a detail not shown here. Identical values can stand only once. In all, about 420,000 compounds went through this assay and about 50,000 (12%) were called active. Inconclusive means that the source gave no clear call. Such entries were picked first, then a sample of the others. Calls come from the whole dose curve; as a rule, active = well fitted inhibition curve with a large enough effect; inconclusive = small, poorly fitted or top-dose-only effect; inactive = flat fitted curve, though single readings scatter. Potencies of inconclusive entries are left out as doubtful fits. A structure can be active in one record and inactive in another.
# Assay: qHTS for Inhibitors of human tyrosyl-DNA phosphodiesterase 1 (TDP1): qHTS in cells in presence of CPT; note: nearly all actives have a fitted effect of over 55% in size
# Details: chicken DT40 Tdp1-/-;hTDP1 cells + 20 nM CPT, ATP luminescence, 48 h; activity change, negative = growth inhibition: at 46.2 µM (top of the series) unless noted
# How it was run: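 Chicken DT40 Tdp1-/- cells complemented with human TDP1, 400 cells/well, exposed to compounds plus 20 nM camptothecin for at least 48 h at 37 C; viability read as ATP content by CellTiter-Glo luminescence.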
# % is set by controls: 0 for no effect and ±100 for the full control effect; potency is the fitted concentration of half-maximal effect; tags give direction and shape of the fitted curve.
Compound,Potency,"activity change, negative = growth inhibition"
COc1ccc(S(=O)(=O)N(Cc2ccco2)Cc2cc3ccccc3[nH]c2=O)cc1,"inconclusive [inhibitor, single point]",–
CC(O)(C(=O)c1ccccc1)c1ccccc1 (stereo not given),–,inactive: -6.35%
COC(=O)c1cccc(N/C=C(\[N+](=O)[O-])S(=O)(=O)c2ccccc2)c1,–,inactive: 3.53%
CCNc1ccc(Br)cc(C(=O)/C=C/c2ccccc2Cl)c1=O,active: 9.2 µM,–
COC(=O)c1ccc(CN2C(=O)c3ccccc3C2=O)cc1,–,inactive: 5.02%
Cc1cccc(NC(=O)c2nc[nH]c2C(=O)N(C)Cc2ccccc2)c1,"inconclusive [inhibitor, single point]",–
O=C(c1cccc(F)c1)N1CCC2(CC1)CN(c1ccccn1)C2,active: 14.6 µM,–
COc1ccccc1N1CCN(C(=O)c2nc(SC)ncc2Cl)CC1,active: 1.03 µM,–
O=C(CN1C(=O)CCSc2ccccc21)Nc1ccc2c(c1)OCO2,–,inactive: -12.2%
CC(=O)c1cccc(-c2ccnc3c2CC(C(=O)N2CCN(C)CC2)O3)c1 (stereo not given),–,inactive: -0.77%
Cc1csc(NC(=O)c2sccc2C)n1,"inconclusive [inhibitor, single point]",–
O=S(=O)(NC1CC1)c1ccc(S(=O)(=O)N2CCc3ccccc32)cc1,"inconclusive [inhibitor, single point]",–
COc1ccc(-c2cc3onc(-c4c(Cl)cccc4Cl)c3c(=O)n2C)cc1,"inconclusive [inhibitor, single point]",–
CCCOc1cc(N)ccc1C(=O)OCCN(CC)CC,active: 0.128 µM,–
NC1=C(Br)C(=O)c2ncccc2C1=O,active: 0.651 µM,–
O=C(NNS(=O)(=O)c1ccccc1[N+](=O)[O-])c1cccc(Cl)c1,–,inactive: -14.1%
CC(=O)N1CCOc2ccc(S(=O)(=O)N3CCC(C(=O)NCc4ccccc4)CC3)cc21,–,inactive: -21.8%
CC(C)(CNC(=O)c1ccc(S(=O)(=O)Nc2cccc(C(F)(F)F)c2)cc1)N1CCOCC1,"inconclusive [inhibitor, single point]",–
COc1ccc(CN2CCC(CO)(Cc3cccc(C(F)(F)F)c3)CC2)cc1Cn1cccn1,"inconclusive [inhibitor, single point]",–
O=C(Cn1ncc2c([nH]c3ccccc32)c1=O)N1CCN(c2ccccc2F)CC1,"inconclusive [inhibitor, single point]",–
CN(Cc1ccc(Cl)c(Cl)c1)C(C(=O)NCc1ccccc1)c1ccco1 (stereo not given),"inconclusive [inhibitor, single point]",–
COc1cc(C(c2c(C)[nH][nH]c2=O)c2c(C)[nH][nH]c2=O)cc(Br)c1OC,–,inactive: -4.86%
O=C(CC[C@H]1O[C@@H](n2cnc3c(NC(=O)c4ccccc4)ncnc32)[C@H](O)[C@@H]1O)N[C@@H](CO)Cc1c[nH]c2ccccc12,–,inactive: -16.2%
Cc1cc(Nc2ccc(F)cc2Cl)n2nc(C)nc2n1,"inconclusive [inhibitor, single point]",–
COc1cccc(CNC(=O)C(=O)NCC(c2ccco2)S(=O)(=O)c2cccs2)c1 (stereo not given),"inconclusive [inhibitor, partial curve]",–

Compound,Potency,"activity change, negative = growth inhibition"
Cc1ccc(S(=O)(=O)NNC2=NS(=O)(=O)c3ccccc32)c(C)c1,–,inactive: -6.59%
CC(C)c1c(C(=O)NCc2cccnc2)cnn1-c1nccc(-c2ccccc2F)n1,–,inactive: 27.1% [at 9.04 µM]
CN(Cc1ccco1)c1ccnc(-c2ccccc2C(F)(F)F)n1,"inconclusive [inhibitor, single point]",–
CCOc1ccccc1CNC(=O)C1CCN(C(=O)N2CC(CC)Oc3ccc(C)cc32)CC1 (stereo not given),active: 13 µM,–
CC(=O)N1CCc2cc(CNC(=O)Cc3ccc(F)cc3)ccc21,–,inactive: -17.9%
CC(C)N(C(C)C)S(=O)(=O)c1ccc(NN)nc1,"inconclusive [inhibitor, partial curve]",–
COc1ccc(NC(=O)C[C@H]2C(=O)N(CCc3ccccc3)C[C@@H]2C)cc1,–,inactive: -20.8%
CC(C)Oc1ccc(C(=O)NCc2ccco2)cc1,"inconclusive [inhibitor, single point]",–
Cc1cccc(C(=O)NNC(=O)c2c(O)c3ccccc3n(C)c2=O)c1,"inconclusive [inhibitor, single point]",–
Cc1nn(C)c(Cl)c1CN1CCC(CO)(CC2CCCCO2)CC1 (stereo not given),–,inactive: 3.95%
O=C(Nc1ccc(F)cc1)N1CCC(c2nc3c(nnn3Cc3ccccc3Cl)c(=O)[nH]2)CC1,"inconclusive [inhibitor, single point]",–
CO[C@@H]1[C@@H](O[C@@H]2O[C@H](C)[C@@H](O[C@H]3C[C@@](C)(O)[C@@H](OC(=O)CC(C)C)[C@H](C)O3)[C@H](N(C)C)[C@H]2O)[C@@H](CC=O)C[C@@H](C)[C@@H](O)/C=C/C=C/C[C@@H](C)OC(=O)C[C@H]1O,active: 5.96 µM and active: 6.68 µM,–
COc1ccc(N2CC(NC(=O)/C=C\c3ccccc3)CC2=O)cc1 (stereo not given),–,inactive: -2.35%
O=C(NCc1ccco1)c1cc(S(=O)(=O)NC2CC2)ccc1Br,–,inactive: 2.35%
Cc1cc(C)c[n+](C[n+]2cc(C)cc(C)c2)c1,–,inactive: 23.9%
COc1ccc(C(=O)CC(C(=O)O)c2ccc3c(c2)OCO3)cc1OC (stereo not given),–,inactive: 6.87%
C[C@@H](NCCCc1cccc(C(F)(F)F)c1)c1cccc2ccccc12,active: 11.2 µM and active: 9.44 µM,–
Cc1ccc(S(=O)(=O)Nc2ccc3ccccc3c2[N+](=O)[O-])cc1,"inconclusive [inhibitor, single point]",–
CN(CC1CCCN(CCc2ccc(F)cc2)C1)C(=O)CCC(F)(F)F (stereo not given),–,inactive: -14.4%
CN1CCN(S(=O)(=O)c2ccc(N3CCN(c4ccc(O)cc4)CC3)c([N+](=O)[O-])c2)CC1,"inconclusive [inhibitor, single point]",–
Cc1nnc(SCC(=O)c2cc(C)n(-c3ccc4c(c3)OCO4)c2C)s1,active: 25.9 µM,–
C=CCN=C1S/C(=C/c2cccc([N+](=O)[O-])c2)C(=O)N1CC=C,"inconclusive [inhibitor, single point]",–
COc1ccc(Br)cc1CN1CCSCC1,"inconclusive [inhibitor, single point]",–
C#CC(=O)CC1(CN(Cc2ccccc2)C(=O)OC(C)(C)C)CCCCC1,active: 11.6 µM,–
CCOc1ccc(NC(=O)CN(C)C(=O)c2cc(C)on2)cc1OCC,–,inactive: 17.1%

Compound,Potency,"activity change, negative = growth inhibition"
CCCCN1C(=O)C(=O)NC[C@@H]1C(C)CC (stereo not given in full),–,inactive: -5.65%
CN(Cc1cn[nH]c1-c1ccc(-c2ccccc2)cc1)CC1CCOCC1,"inconclusive [inhibitor, single point]",–
CN(C)/C=C(/C(=O)c1ccccc1)n1cncn1,–,inactive: 4.54%
CCn1cc(C(=O)N2CCN(c3ccc([N+](=O)[O-])cc3)CC2)c(=O)c2ccc(C)nc21,"inconclusive [inhibitor, single point]",–
Cc1cc(C)c2nc(-c3cccc(Cl)c3)c(C)c(C(=O)N3CCOCC3)c2c1,"inconclusive [inhibitor, partial curve]",–
O=C(c1cc(COc2cccc(C(F)(F)F)c2)on1)N1CCC(Oc2cccnc2)CC1,active: 14.6 µM,–
Cc1ccc2oc(C(=O)N(Cc3ccncc3)CC3CCCO3)c(C)c2c1 (stereo not given),"inconclusive [inhibitor, single point]",–
Cc1ccc(NC(=S)Nc2ccc(F)cc2)cc1,"inconclusive [inhibitor, single point]",–
CCN(CC)CCn1c(C)nc2ccccc21,–,inactive: -1.08%
COc1ccc(NC(=O)CN(C)C(=O)CNC(=O)Cc2cccc3ccccc23)cc1,–,inactive: -26.4%
CN(C)CCN(C(=O)c1ccc(S(=O)(=O)N(C)c2ccccc2)cc1)c1nc2cc3c(cc2s1)OCCO3,–,inactive: -13.4%
Cc1ccc(C)c(N2CCN(C(=O)Cc3c(C(=O)O)[nH]c4ccc(Cl)cc34)CC2)c1,"inconclusive [inhibitor, single point]",–
CCCC/C=C/C(NC(=O)CCc1ccccc1)c1ccccc1 (stereo not given),"inconclusive [inhibitor, single point]",–
Cc1c(C(=O)O)cccc1-n1c(C)cc(/C=N/Nc2ccc([N+](=O)[O-])cn2)c1C,–,inactive: 6.46%
CCC1(C)Cc2c(sc3nc(SC)[nH]c(=S)c23)CO1 (stereo not given),–,inactive: -3.53%
O=C(Nc1ccc2nc(SCC(=O)N3CCOCC3)sc2c1)c1cccc(Cl)c1,active: 14.6 µM,–
O=C(COc1ccccc1Cl)Nc1ccccc1C(=O)N1CCOCC1,–,inactive: -10.4%
COc1ccc([C@H]2CC(=O)C=C(c3ccc(SC)cc3)C2)cc1,"inconclusive [inhibitor, single point]",–
CC1(Cc2ccc3c(c2)OCO3)C(=O)Nc2ccc(-c3cccc(C(F)(F)F)c3)cc21 (stereo not given),active: 23.1 µM,–
COc1ccc(NC(=O)c2cc3c(Cl)nc4ccccc4c3s2)c(OC)c1,"inconclusive [inhibitor, single point]",–
CCCCC1CCC(C(=O)N(CCC(C)C)c2c(N)n(CCCC)c(=O)[nH]c2=O)CC1 (stereo not given),"inconclusive [inhibitor, single point]",–
Cc1nn(C(CC(=O)O)C(=O)O)c(C)c1Br (stereo not given),–,inactive: -1.55%
CC1CCc2nc3ccc(S(=O)(=O)N4CCC(C(=O)NC(C)c5ccccc5)CC4)cc3c(C(=O)O)c2C1 (stereo not given),–,inactive: 6.03%
NC(=O)c1sc2nc3c(c(-c4ccco4)c2c1N)CCCC3,"inconclusive [inhibitor, single point]",–
Cn1ccnc1CN1CCCCC1C(=O)Nc1ccc(Oc2cccnc2)cc1 (stereo not given),active: 14.6 µM,–
